Data from PubChem BioAssay AID686979 (National Center for Advancing Translational Sciences (NCATS), 2013).
Values joined by “and” are separate entries in the source; they are usually repeats but may differ in a detail not shown here. Equal entries are not always repeated. The whole screen tested about 420,000 compounds, of which about 50,000 (12%) were called active. This list was built around the results that the source calls inconclusive (neither active nor inactive); the mix of calls is not that of the screen. Calls follow the shape of the dose curve; as a rule, active = well fitted inhibition curve with a large enough effect; inconclusive = small, poorly fitted or top-dose-only effect; inactive = flat fitted curve, though single readings scatter. Where the call is inconclusive, the potency comes from a doubtful curve fit.

experiment: qHTS for Inhibitors of human tyrosyl-DNA phosphodiesterase 1 (TDP1): qHTS in cells in presence of CPT; conditions: chicken DT40 Tdp1-/-;hTDP1 cells + 20 nM CPT, ATP luminescence, 48 h; activity change, negative = growth inhibition: at 46.2 µM (top of the series); also: nearly all actives have a fitted effect of over 55% in size
In short: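 Cell growth measured by CellTiter-Glo luminescence after a minimum 48 h, 37 C compound exposure with 20 nM CPT in Tdp1-knockout DT40 cells stably expressing hTDP1, seeded 400/well; qHTS titration format.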
% is scaled to controls: 0 for no effect and ±100 for the full control effect; potency is read from the fitted curve at half-maximal effect; tags tell the direction and shape of the fitted curve.

SMILES | Potency | activity change, negative = growth inhibition
CCOC(=O)N1CCN(CC(O)COc2ccc(OC)cc2C(C)(C)C)CC1 (centres undefined) | inconclusive: 29.1 µM [inhibitor, single point] | –
CC1CCCN(S(=O)(=O)c2ccc(NC(=O)CN3CCN(C)CC3)cc2)C1 (centres undefined) | inconclusive: 20.6 µM [inhibitor, partial curve] | –
COc1ccc(C(CC(=O)Nc2ccc(C)cn2)N2Cc3ccccc3C2=O)cc1 (centres undefined) | inactive | –
CCN(Cc1ccccc1)C(c1ccncc1)c1nnnn1C(C)(C)C (centres undefined) | inconclusive: 25.9 µM [inhibitor, single point] | –
ClCc1csc(-c2ccc(Cl)cc2)n1 | active: 13 µM | –
CCn1c(=O)c2cc(C(=O)NCCCN(C)Cc3ccccc3)sc2c2ccccc21 | inconclusive: 29.1 µM [inhibitor, single point] | –
CCc1cccc(NC(=O)Cn2cc(C(=O)c3ccncc3)c(=O)c3cc(C)c(C)cc32)c1 | inconclusive: 29.1 µM [inhibitor, single point] | –
COc1cccc(OC(=O)c2ccccc2)c1OC(=O)c1ccccc1 | inconclusive: 32.6 µM [inhibitor, single point] | –
Cc1ccc(C(=O)N/C(=C\c2ccco2)C(=O)NCCCn2ccnc2)cc1C | inactive | –
CCOC(=O)C1CCN(S(=O)(=O)c2ccc3c4c2CC(=O)N4CC(C)S3)CC1 (centres undefined) | active: 20.6 µM | –
O=C(NCc1ccc(Cl)cc1)c1ccc2c(c1)NC(=O)C(CS(=O)(=O)Cc1ccccc1Cl)N2 (centres undefined) | inconclusive: 16.4 µM [inhibitor, partial curve] | –
Cc1cc2[nH]c(=O)c3ccccc3n2n1 | inconclusive: 6.51 µM [inhibitor, full curve] | –
CCCCCCCCc1nc(SCC(C)=O)n[nH]1 | inconclusive: 29.1 µM [inhibitor, single point] | –
COC(=O)c1ccc(C2Nc3ccc(/C(C)=N/NC(=O)C(OC)c4ccccc4)cc3C3C=CCC32)cc1 (centres undefined) | active: 13 µM | –
COc1ccc(CC(=O)Nc2ccc(N(C)C)c3ccccc23)cc1 | inconclusive: 29.1 µM [inhibitor, single point] | –
COc1ccc(NC(=O)N2CCCCC2c2cccnc2)cc1 (centres undefined) | inactive | –
Cc1cc(/C=C2/NC(=O)N(c3ccccc3)C2=O)c(C)n1-c1cccnc1 | active: 25.9 µM | –
CCc1cc2c(=O)n(Cc3ccco3)c(SCC(=O)NC3CCS(=O)(=O)C3)nc2s1 (centres undefined) | inconclusive: 29.1 µM [inhibitor, single point] | –
COc1ccc(OC)c(Cc2nnc(CCC(=O)NC3CCCC3)o2)c1 | inactive | –
O=C(NCCOc1ccccc1Cl)c1cccc2c1C(=O)c1ccc(Cl)cc1S2(=O)=O | active: 23.1 µM | –
CC(CN1c2ccccc2Sc2ccccc21)N(C)C (centres undefined) | inconclusive: 15.8 µM [inhibitor, single point] and inconclusive: 18.4 µM [inhibitor, single point] | –
CC12CCC(=O)N1C(C(=O)NCCN1C(=O)S/C(=C\c3ccc(F)cc3)C1=O)CS2 (centres undefined) | inconclusive: 29.1 µM [inhibitor, single point] | –
Cc1cccc(OCCNC(=O)CSc2ccc(C(F)(F)F)cc2[N+](=O)[O-])c1 | inconclusive: 29.1 µM [inhibitor, single point] | –

SMILES | Potency | activity change, negative = growth inhibition
COc1ccc(CN(C)C(=O)C2CC(=O)N(c3ccc4c(c3)OCCO4)C2)c(OC)c1 (centres undefined) | active: 20.6 µM | –
COc1cc(Cl)c(C)cc1NC(=O)c1ccc(S(C)(=O)=O)cc1 | inactive | –
C[C@H](CO)N1C[C@H](C)[C@@H](CN(C)C(=O)Nc2ccccc2)Oc2ccc(NC(=O)NC3CCCCC3)cc2C1=O | inconclusive: 29.1 µM [inhibitor, single point] | –
Cc1ccc2cn[nH]c2c1NC(N)=S | inactive | –
COc1ccc(CNC(=O)C[C@H]2C(=O)N(C3CCCCC3)C[C@@H]2Cc2ccccc2)cc1 | inconclusive: 16.4 µM [inhibitor, partial curve] | –
O=C(NCCc1ccccc1)C(=O)c1c(-c2ccccc2)[nH]c2ccccc12 | inconclusive: 29.1 µM [inhibitor, single point] | –
Cc1ccc(C)c(N2CCN(C(=O)Cn3ncc4c([nH]c5ccc(C)cc54)c3=O)CC2)c1 | active: 14.6 µM | –
Cc1cccc(Cn2cccc2CNS(=O)(=O)c2ccc(Br)cc2)c1 | inconclusive: 29.1 µM [inhibitor, single point] | –
Cc1ccc(NC(=O)COC(=O)c2ccc([N+](=O)[O-])o2)cc1S(=O)(=O)N1CCCCCC1 | inactive | –
O=S1(=O)CCOC[C@H](c2ccccc2)N1Cc1ccc(F)cc1 | inconclusive: 35.5 µM [inhibitor, single point] | –
CNC1(c2nnnn2-c2c(C)cccc2C)CCOC(C)(C)C1 (centres undefined) | inactive | –
COc1ccc(Nc2cc3n(c(=O)n2)CCc2cc(OC)c(OC)cc2-3)c(C)c1 | inconclusive: 20.6 µM [inhibitor, single point] | –
Cc1ccccc1CN1C(=O)c2ccccc2S(=O)(=O)c2ccc(C(=O)OCC3CCCO3)cc21 (centres undefined) | inactive | –
CCCCNC(=O)Cn1c(SCc2cccc(Cl)c2)nc2ccncc21 | inconclusive: 20 µM [inhibitor, single point] | –
Cc1cccc2c1cnn2C(=O)Nc1ccc(Br)cc1F | inactive | –
COc1ccc(OC)c(S(=O)(=O)N2CCCC(C(=O)NC3CC3)C2)c1 (centres undefined) | inconclusive: 25.9 µM [inhibitor, single point] | –
Cc1cc(=O)oc2c3c(cc(OCC(=O)NC(C)C)c12)OC(C)(C)CC3 | inactive | –
CC1(C)CC(=O)C2=C(C1)NC(SCC(=O)Nc1ccccc1)=C(C#N)C2c1ccco1 (centres undefined) | inconclusive: 20.6 µM [inhibitor, single point] | –
O=C(c1cc2nc(-c3ccco3)cc(C(F)(F)F)n2n1)N1CCN(c2ccc(F)cc2)CC1 | inconclusive: 25.9 µM [inhibitor, single point] | –
O=c1c2cc(Br)ccc2nc(-c2cccc(Cl)c2)n1O | inconclusive: 29.1 µM [inhibitor, single point] | –
COc1cc(C)c(NC(=S)Nc2ccc(C)c(Cl)c2)cc1OC | inactive | –
COc1ccc(OC)c(NC(=O)CN(c2ccc(C)cc2)S(=O)(=O)c2c(C)noc2C)c1 | inconclusive: 29.1 µM [inhibitor, single point] | –
c1ccc(-c2nn3c(-c4ccco4)nnc3s2)nc1 | inconclusive: 16.4 µM [inhibitor, single point] | –

SMILES | Potency | activity change, negative = growth inhibition
C=CCN=C1N[C@@H](c2ccc(Br)cc2)C(C(=O)OC)=C(C)N1Cc1ccccc1 | active: 12.6 µM | –
CSc1ccc(OCC(=O)Nc2ccc(N3CCOCC3)c(Cl)c2)cc1 | inconclusive: 16.4 µM [inhibitor, partial curve] | –
COc1ccc(C(C(=O)NC2CCCC2)n2c(-c3cccs3)nc3ccccc32)cc1 (centres undefined) | inconclusive: 29.1 µM [inhibitor, single point] | –
CN1CCN(c2ccc(NC(=S)NC(=O)/C=C/c3ccco3)cc2)CC1 | inconclusive: 29.1 µM [inhibitor, single point] | –
CCOc1ccc(S(=O)(=O)NNC(=O)c2cc3ccccc3o2)cc1 | inconclusive: 0.0052 µM [inhibitor, full curve, poor fit] | –
CCOC(=O)N1CCN(S(=O)(=O)c2ccc(OC)c3ccccc23)CC1 | inconclusive: 29.1 µM [inhibitor, single point] | –
CC(=O)NC1CCCc2c1cnn2-c1ccc(C(C)(C)C)cc1 (centres undefined) | inconclusive: 32.6 µM [inhibitor, single point] | –
CCCCOC(=O)c1ccc(NC(=O)/C=C/c2cccs2)cc1 | inconclusive: 25.9 µM [inhibitor, single point] | –
CC(OC(=O)CNC(=O)c1ccc(Cl)c([N+](=O)[O-])c1)C(=O)NCc1ccco1 (centres undefined) | inactive | –
O=C(O)COc1ccc(Br)cc1/C=N\Nc1ccccn1 | inconclusive: 23.1 µM [inhibitor, single point] | –
O=C(CNC(=O)c1ccc(-c2ccccc2)cc1)Nc1ccc(S(=O)(=O)Nc2ncccn2)cc1 | inactive | –
COc1cccc(NS(=O)(=O)c2cc3[nH]c(=O)c(=O)[nH]c3cc2C)c1 | inactive | –
CC(NC(=O)CN1C(=O)c2cccnc2Oc2ccc(Cl)cc21)c1ccccc1 (centres undefined) | inconclusive: 16.4 µM [inhibitor, single point] | –
NC(=O)C1CCN(Cc2nc3cc(C(F)(F)F)ccc3c(=O)[nH]2)CC1 | inactive | –
Cc1ccc(CNS(=O)(=O)CCNC(=O)c2ccccc2)cc1 | inactive | –
CCOc1ccccc1CNc1nc2nc(C)cc(C)n2n1 | inconclusive: 14.6 µM [inhibitor, single point] | –
CC(C)c1ccc(OCC(=O)Nc2cccc3c2CCCC3)cc1 | inconclusive: 16.4 µM [inhibitor, single point] | –
CCCn1c(C)nc2c(c1=O)c1nc3ccccc3nc1n2CCC1=CCCCC1 | inconclusive: 20.6 µM [inhibitor, single point] | –
CCOC(=O)C1CCCN(C(=O)c2oc3ccccc3c2C)CC1 (centres undefined) | inconclusive: 29.1 µM [inhibitor, single point] | –
C=CCc1ccc(OCCOCCOc2ccc(C)cc2[N+](=O)[O-])c(OC)c1 | inconclusive: 18.4 µM [inhibitor, single point] | –
CC(OC(=O)Cc1ccc(Br)cc1)C(=O)NC1CCCC1 (centres undefined) | inconclusive: 16.4 µM [inhibitor, single point] | –
CC(C)NC1(C(N)=O)CCNCC1 | inactive | –
COc1cccc2c(SCC(=O)N/N=C/c3ccccc3)cc(C)nc12 | – | inconclusive: -33.2% [inhibitor]
